The whole screen tested about 190,000 compounds, of which about 520 (0.27%) were called active. The inconclusive results got no clear call from the source; some entries with a clear call stand among them for comparison.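 The calls were made as follows: active = GTP binding activity at least 20 points away from the 100% control level, either lower or higher; inconclusive = compound flagged as likely green fluorescent, judged across all proteins; inactive = the rest.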
The compounds below were run against Ras-related C3 botulinum toxin substrate 1 (Homo sapiens) (UniProt P63000) (assay: wildtype Rac1 GTP binding modulators, primary screen, biochemical, GST-Rac1 beads, flow cytometry, multiplex (AID 757)). Conditions: fluorescent GTP binding, at 10 µM, actives lie on both sides, 0 = cold GTP competed, 100 = untreated.

| SMILES | GTP binding activity (% of control) |
| --- | --- |
| CC(C)c1ccc(/C=C/C(=O)n2nnc3ccccc32)cc1 | inconclusive: 88% |
| O=c1c(/C=N/Nc2ccccc2)c(Sc2nnnn2-c2ccccc2)nc2ccccn12 | inconclusive: 130% |
| C=CCNC(=S)N/N=C/c1ccc(-c2ccc(OC)cc2)o1 | inconclusive: 88% |
| O=C(Nc1cc(C(F)(F)F)ccc1N1CCCCC1)c1cccc([N+](=O)[O-])c1 | inconclusive: 93% |
| O=C(/C=C/c1ccc(-c2ccccc2)o1)c1ccccc1 | inconclusive: 93% |
| O=C(c1ccc([N+](=O)[O-])cc1[N+](=O)[O-])N1CCCC1 | inconclusive: 103% |
| Cc1c(Cl)c([N+](=O)[O-])nn1Cc1ccc(C(=O)N/N=C\c2cc(Cl)ccc2O)o1 | inconclusive: 95% |
| Cc1cc(Cl)ccc1OCC(=O)N1CCN(c2ncccn2)CC1 | inconclusive: 91% |
| COc1ccc(CN2CCNC(=O)C2CC(=O)N2CCc3ccccc3C2)c(OC)c1 (stereo not given) | inconclusive: 99% |
| CN1CCN(C(=S)c2cn(CCOc3ccccc3F)c3ccccc23)CC1 | inactive: 104% |
| COC(=O)N/N=C/c1cc(Br)ccc1O | inconclusive: 100% |
| NNC(=O)CNS(=O)(=O)c1ccc([N+](=O)[O-])cc1 | inactive: 99% |
| O=C(OCc1ccc2c(c1)OCO2)c1ccc(S(=O)(=O)N2CCCCC2)cc1 | inconclusive: 106% |
| CCCc1nn(C)c(C(=O)Nc2cccc(C)c2)c1Cl | inconclusive: 103% |
| O=S(=O)(Nc1ccc(O)c(Sc2nc3ccccc3s2)c1)c1ccc(Cl)cc1 | inconclusive: 93% |
| CC(C)(C)SCCNC(=O)c1cccc([N+](=O)[O-])c1 | inconclusive: 104% |
| O=C(O)CC/C(=C\c1ccc(N2CCOCC2)c([N+](=O)[O-])c1)c1nc2ccccc2s1 | inactive: 82% |
| Nc1c(C(=O)NCC2CCCO2)sc2nc3c(c(-c4ccco4)c12)CC/C3=C\c1ccco1 (stereo not given) | inconclusive: 87% |
| O=S(=O)(c1ccc(Cl)cc1)N1CCN=C1SCc1ccc(Cl)c(Cl)c1 | inactive: 100% |
| COc1ccccc1-c1nnc(SCC(=O)c2ccc(C3CCCCC3)cc2)n1Cc1ccco1 | inconclusive: 93% |
| O=C(O)C(CC1CCCCC1)N1CCS(=O)(=O)CC1 (stereo not given) | inactive: 94% |
| Nc1nn2c(-c3ccccc3)cc(=O)[nH]c2c1N=Nc1ccc(O)cc1 | inconclusive: 82% |
| Cc1csc(Sc2ccc(S(=O)(=O)N3CCCC3)cn2)n1 | inactive: 98% |
| CCn1cc(C(=O)OCC(=O)c2cc(C)n(-c3cccc(C(F)(F)F)c3)c2C)c(=O)c2ccc(C)nc21 | active: 70% |

| SMILES | GTP binding activity (% of control) |
| --- | --- |
| CN(C(=O)COc1ccccc1C(=O)NCCOc1ccccc1)c1ccccc1 | inactive: 102% |
| O=C1C(=O)N(Cc2ccccc2)C(=O)N1CCN1C(=O)c2ccccc2C1=O | inconclusive: 93% |
| CNC(=S)NCCc1cc2c(OC)ccc(OC)c2[nH]c1=O | inactive: 98% |
| S=C(Nc1ccc(Oc2ccccc2)cc1)NC1CCCCC1 | active: 141% [activator] |
| COC(=O)C1=C(C)N(c2cccc(Cl)c2)C(=O)C1 | inconclusive: 103% |
| COCCn1c(SCC(=O)Nc2cc(C)cc(C)c2)nnc1C(C)C | inconclusive: 104% |
| O=C(Nc1ccccc1)N1CCOCC1 | inconclusive: 102% |
| N/C(=N\OC(=O)CC1CCCCC1)c1ccccn1 | inconclusive: 102% |
| CCOC(=O)c1cnc2nc(C)nn2c1N | inactive: 95% |
| CC(=O)NC(c1ccco1)c1ccc2cccnc2c1O (stereo not given) | inconclusive: 87% |
| CN(C)S(=O)(=O)c1ccc(C(=O)OCC(=O)Nc2ccccc2OC(F)F)cc1 | inconclusive: 102% |
| Cc1ccc(-c2csc3nc(C)n(N)c(=O)c23)o1 | inconclusive: 106% |
| CCCc1nc2cc(Cl)c([N+](=O)[O-])cc2o1 | inconclusive: 101% |
| CCC(CC)C(=O)Nc1cccc(C(=O)Nc2ccc(OC)cc2[N+](=O)[O-])c1 | inconclusive: 108% |
| CC1(C)Cc2c(sc(NC(=O)c3ccc(Br)o3)c2C#N)CO1 | active: 167% [activator] |
| Clc1ccc(SCCCCN2CCOCC2)cc1 | inconclusive: 107% |
| Cc1ccsc1/C=N/n1c(-c2ccncc2)n[nH]c1=S | inactive: 100% |
| O=C(COc1ccc(Br)cc1)c1ccc2c(c1)CCCC2 | inconclusive: 100% |
| CNc1c([N+](=O)[O-])cnn1-c1ccc(Cl)cc1 | inconclusive: 97% |
| Cc1ccc(NCC(=O)c2ccccc2)cc1Cl | inactive: 91% |
| CC1=NN(c2ccc(S(=O)(=O)O)cc2C)C(=O)C1 | inconclusive: 93% |
| CCOC(=O)c1cc2c(N)c(C(=O)c3ccc(Br)cc3)sc2[nH]c1=O | active: 64% |
| O=C1C2CC=CCC2C(=O)N1c1ncn[nH]1 (stereo not given) | inconclusive: 413% |
| CCNC(=S)N/N=C(\C)c1ccc2ccccc2c1OC(F)F | inconclusive: 94% |

| SMILES | GTP binding activity (% of control) |
| --- | --- |
| O=C1c2ccccc2-c2onc3ccc(Oc4ccccc4)c1c23 | active: 79% |
| CCCCN1CN(S(=O)(=O)c2cccs2)c2nc3ccccc3nc21 | inconclusive: 105% |
| COc1ccc(CNc2oc(COc3ccc(Cl)cc3)nc2C#N)cc1 | inconclusive: 106% |
| O=C(OCC1OC(n2cnc3c(N(C(=O)c4ccccc4)C(=O)c4ccccc4)ncnc32)C(O)C1F)c1ccccc1 (stereo not given) | inconclusive: 104% |
| O=C(O)/C=C/c1cn(Cc2ccccc2)nc1-c1ccccc1 | inconclusive: 120% |
| CC(C)c1nc2n[nH]c(N)c2c2c1CCC2 | inconclusive: 103% |
| NC(=O)C1CCN(CC(=O)NCc2ccccc2)CC1 | inconclusive: 103% |
| O=C(CNS(=O)(=O)c1ccc(Br)cc1)OCc1cc(=O)n2cc(Br)ccc2n1 | inconclusive: 101% |
| O=C(Nc1nnc(-c2ccc3c(c2)OCCO3)o1)c1ccc(Cc2ccccc2)cc1 | inactive: 92% |
| CCOC(=O)n1n[n+]([O-])c2ccccc21 | inconclusive: 105% |
| O=C(CCCn1c(=S)[nH]c2ccccc2c1=O)NCCSCc1ccccc1 | inactive: 95% |
| Nc1nnc(SCC(=O)OCC(=O)c2ccccc2Br)s1 | inconclusive: 92% |
| N=C1C(=O)OCC1c1ccccc1NC(=O)CN1CCOCC1 (stereo not given) | inactive: 101% |
| CCN(CC(=O)Nc1ccccc1OC)C(=O)C1CC2C=CC1C2 (stereo not given) | inconclusive: 91% |
| CCn1cc(C=C2C(=O)c3ccccc3C2=O)c2ccccc21 | active: 74% |
| COCC(C)n1c(SCc2cc(=O)n3cc(C)ccc3n2)nc2ccccc2c1=O (stereo not given) | inconclusive: 92% |
| CCOC(=O)c1ccccc1NC(=O)Cn1c(-c2nonc2N)nc2ccccc21 | inactive: 103% |
| CC(C)CNC(=O)C(=O)NNC(=O)C1CCCCC1 | inconclusive: 109% |
| N#Cc1c(=O)c2nc(NCc3ccccc3)ncc2n2ccccc12 | active: 79% |
| CCn1c(=O)cc(SCC(=O)N2CCC(C)CC2)c2ccccc21 | inconclusive: 95% |
| COc1cc(/C=C(\C#N)c2nc3ccc(C)cc3[nH]2)cc([N+](=O)[O-])c1O | active: 70% |
| C=CCc1ccccc1OCC(O)CN1CCN(c2ccc(C)cc2)CC1 (stereo not given) | inconclusive: 97% |
| O=C(Nc1cccc(O)c1)c1ccc(Br)c(S(=O)(=O)N2CCCCC2)c1 | inconclusive: 95% |
| COc1cccc(CNC(=O)CCS(=O)(=O)c2cccc3nonc23)c1 | inconclusive: 105% |

| SMILES | GTP binding activity (% of control) |
| --- | --- |
| CCc1nnc(NS(=O)(=O)c2ccc(N/C=C\C(=O)c3ccc(F)cc3)cc2)s1 | inconclusive: 95% |
| Cc1c(NC(=O)c2ccc(-c3ccc([N+](=O)[O-])cc3Cl)o2)c(=O)n(-c2ccccc2)n1C | inconclusive: 98% |
| CN1C=CC=C/C1=C1\SC(=S)N(c2ccccc2)C1=O | inconclusive: 109% |
| CCOc1cc(C2c3c(-c4ccccc4)n[nH]c3C(=O)N2c2ccc(C(=O)O)cc2)ccc1O (stereo not given) | active: 59% |
| COCCCNC(=O)C1CCN(c2nc(C)cc(C)n2)CC1 | inconclusive: 110% |
| CCCn1c(C)cc(C(=O)CSc2nc3nc(C)cc(C)n3n2)c1C | inactive: 100% |
| CC(C)CN=Cc1c(O)c([N+](=O)[O-])cc2oc3c(c12)CCCC3 | inactive: 97% |
| CC(=O)N1Cc2cc([N+](=O)[O-])ccc2Oc2ccccc21 | inactive: 93% |
| c1ccc(COc2ccc(OCCCCN3CCCCC3)cc2)cc1 | inconclusive: 107% |
| O=C(CCl)Nc1ccccc1C(=O)c1ccccc1 | inactive: 98% |
| Cc1ccc(NC(=O)CSc2ncn[nH]2)cc1S(=O)(=O)N1CCOCC1 | inconclusive: 91% |
| COc1ccccc1-c1nc(C#N)c(N2CCN(C(c3ccccc3)c3ccccc3)CC2)o1 | inconclusive: 96% |
| C=CCNC(=O)c1c(Cl)cnn1-c1ccc(C)cc1 | inactive: 94% |
| Cc1cccc(/N=C2/NC(=O)C(Cc3ccccc3)S2)n1 (stereo not given) | inconclusive: 103% |
| CCC(OC(=O)c1cc2sccc2n1C)C(=O)NCc1ccco1 (stereo not given) | active: 37% |
| C#CCSc1nsc(SCC#C)c1C#N | inconclusive: 101% |
| Fc1ccccc1N1CCN(c2ncnc3[nH]ncc23)CC1 | inconclusive: 95% |
| CC(C)NC(=O)Cn1nnc(-c2ccc(Cl)cc2)n1 | inconclusive: 98% |
| Nc1ccc2nc[nH]c2c1 | inactive: 99% |
| N#Cc1ccc(-c2ccc(Cl)cc2)nc1Oc1ccc(F)cc1 | inconclusive: 108% |
| O=C(Cc1nc(=O)c2ccccc2s1)Nc1ccccc1 | inconclusive: 91% |
| Cc1cc(C)n2nc(C(=O)N3CCCC(CNS(=O)(=O)c4cccs4)C3)cc2n1 (stereo not given) | active: 28% |
| COc1ccc(/C=C/C(=O)Oc2cc(C)[nH]c(=O)c2[N+](=O)[O-])cc1OC | inactive: 103% |

Reference: PubChem BioAssay AID757 (NMMLSC, 2007)
